Data: paper PMC4336329 (PLoS ONE, 2015)
About 14,000 (4.5%) of roughly 310,000 compounds showed an effect of 50% or more. The effect is printed as a negative number. This is one part of the list.

Target: human ether-à-go-go-related gene (hERG) potassium channel (human, UniProt Q12809)
Assay: primary screen, population patch clamp on CHO cells stably expressing hERG
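Note: peak tail current of the secondary pulse compared with the same well before compound.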

human ether-à-go-go-related gene (hERG) potassium channel, sequence (Q12809 whole entry, looked up): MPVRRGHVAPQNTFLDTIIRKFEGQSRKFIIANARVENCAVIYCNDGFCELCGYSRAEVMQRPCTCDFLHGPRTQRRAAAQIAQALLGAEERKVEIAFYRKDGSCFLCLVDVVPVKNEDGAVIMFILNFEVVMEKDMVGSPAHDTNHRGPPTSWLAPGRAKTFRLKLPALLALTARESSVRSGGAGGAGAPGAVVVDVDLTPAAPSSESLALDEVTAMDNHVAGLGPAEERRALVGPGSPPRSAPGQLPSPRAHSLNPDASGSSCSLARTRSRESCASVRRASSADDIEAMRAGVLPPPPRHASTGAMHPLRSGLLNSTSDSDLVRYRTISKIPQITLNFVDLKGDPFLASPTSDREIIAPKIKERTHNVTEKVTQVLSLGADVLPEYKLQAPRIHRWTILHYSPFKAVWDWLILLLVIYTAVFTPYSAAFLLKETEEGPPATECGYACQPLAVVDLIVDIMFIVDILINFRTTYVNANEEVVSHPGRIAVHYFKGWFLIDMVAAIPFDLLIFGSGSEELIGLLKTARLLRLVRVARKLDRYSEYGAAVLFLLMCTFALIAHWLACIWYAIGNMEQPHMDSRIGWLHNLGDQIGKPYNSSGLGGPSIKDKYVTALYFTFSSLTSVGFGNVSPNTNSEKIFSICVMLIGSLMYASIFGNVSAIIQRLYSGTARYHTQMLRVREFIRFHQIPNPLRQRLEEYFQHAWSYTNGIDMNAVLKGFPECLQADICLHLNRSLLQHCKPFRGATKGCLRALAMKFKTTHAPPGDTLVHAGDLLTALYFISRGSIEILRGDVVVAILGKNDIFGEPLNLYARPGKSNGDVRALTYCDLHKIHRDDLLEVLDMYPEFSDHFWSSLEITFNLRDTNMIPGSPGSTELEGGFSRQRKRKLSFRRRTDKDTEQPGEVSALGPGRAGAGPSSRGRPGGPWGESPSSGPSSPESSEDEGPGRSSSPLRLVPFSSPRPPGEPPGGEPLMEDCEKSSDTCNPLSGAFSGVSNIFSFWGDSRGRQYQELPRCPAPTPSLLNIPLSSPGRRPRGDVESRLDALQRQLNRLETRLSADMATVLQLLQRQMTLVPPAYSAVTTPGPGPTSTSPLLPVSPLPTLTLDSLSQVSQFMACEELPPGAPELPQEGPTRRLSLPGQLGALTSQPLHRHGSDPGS

SMILES	hERG current change (%, negative = inhibition) at 10uM [%]
COc1ccc(C2C(C#N)=C(N)N(c3cccnc3)C3=C2C(=O)CCC3)cc1Cn1cc([N+](=O)[O-])cn1 (stereo not shown)	-25
CCN(C(=O)CN1CCCCC1)C1(C)C(=O)c2ccccc2C1=O	6.06
COc1ccc(C(=O)NNC(=O)C2CC=CCC2)cc1 (stereo not shown)	11.5
COc1ccc2cc3cc(C(=O)NCc4ccccn4)oc3nc2c1	12.1
O=C1c2c(Br)c(Br)c(Br)c(Br)c2C(=O)N1c1ccccn1	24.9
O=C(Nc1ccccc1)c1cccc(S(=O)(=O)NC2CCCC2)c1	5.41
COC(=O)N/N=C(C)/C=C/c1ccccc1	4.42
Cn1ccnc1SCc1nc2c(cnn2-c2ccccc2)c(=O)[nH]1	-13.7
Cc1nn(-c2ccc(F)cc2)c2nc(N)c(C#N)c(-c3cccs3)c12	7.18
CCCC(=O)c1cc(F)c(N2CCOCC2)cc1C	-10.7
Cc1ccccc1C(=O)Nc1sc(C)c(C)c1C(=O)c1ccccc1	22.2
CCc1cc(Cn2nc(-c3ccccc3)cc2C(=O)O)on1	-1.7
Nc1nc(-c2ccco2)nn1C(=O)c1ccc(Cl)cc1	10.1
CC(=O)Nc1ccc(SCCN2CC[C@@H](C)CCC2=O)cc1	-1.31
Cc1ccc(-n2nnnc2SCC(=O)Nc2ccccc2N2CCCCC2)cc1C	14.3
S=c1[nH]nc(COc2ccccc2)n1/N=C/c1cccnc1	11.9
O=C(NCc1cccs1)c1ccc(CS(=O)Cc2ccccc2Cl)o1 (stereo not shown)	7.77
CC(C)(O)CNC(=O)Nc1ccc(Cl)c(Cl)c1	8.04
COC(=O)C1=C(SC)N(c2ccccc2)C(c2ccccc2)CC1=O (stereo not shown)	-29.3
Cc1cc(C)c(NC(=O)CSc2nc3[nH]ncc3c(=O)[nH]2)c(C)c1	20.9
C=C1CCN([C@@H](Cc2ccccc2)C(=O)NC2CCN(Cc3ccccc3)CC2)S(=O)(=O)c2ccccc21	-21.3
Cc1ccc(S(=O)(=O)Nc2ccccc2CNc2ccccn2)cc1	7.48
CC(Sc1nncn1-c1ccccc1)C(=O)Nc1cccc([N+](=O)[O-])c1 (stereo not shown)	-17.2
Cc1ccc(C2C3=C(CC(C)(C)CC3=O)Nc3n[nH]c(C)c32)cc1 (stereo not shown)	-10.4
Cc1[nH]c2ccc(OCc3ccccc3)cc2c1CCN.Cl	3.53
